The supplement of paper PMC12217912
The other results are listed elsewhere or left out. Sequences were assembled here from the parent chain. Values near 0.05 are background.

B1: TEV protease; numbered along this chain (parent)
chain: MGESLFKGPRDYNPISSSICHLTNESDGHTTSLYGIGFGPFIITNKHLFRRNNGTLVVQSLHGVFKVKDTTTLQQHLVDGRDMIIIRMPKDFPPFPQKLKFREPQREERICLVTTNFQTKSMSSMVSDTSCTFPSGDGIFWKHWIQTKDGQCGSPLVSTRDGFIVGIHSASNFTNTNNYFTSVPKNFMELLTNQEAQQWVSGWRLNADSVLWGGHKVFMVKPEEPFQPVKEATQL

Variants of: B1
Assay: raw area under fraction-flipped curve 0-4 h after induction (AUC4h, not background-subtracted), DNA-recorder readout of cleavage of the substrate (dimensionless); higher = more cleavage of the substrate by the protease variant
Settings: temperature: 34 °C; time window: 0-4 h after rhamnose induction
Procedure: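 In vivo DNA recorder in E. coli TOP10(DE3) ΔrhaA at 34 °C. Each TEVp single-site mutant (parent TEVp 0) is paired with a single-site variant of the 7-mer TEVs (canonical ENLYFQ|S). The substrate sits between flexible linkers in a Bxb1-sfGFP-TEVs-SsrA fusion, so cleavage stabilises Bxb1 and speeds flipping of a recombination array, read by NGS. The value is the raw area under the fraction-flipped curve over 0-4 h after rhamnose induction (AUC4h), with ≥20 reads per time point. It is not background-subtracted; inactive controls average about 0.047.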
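Further: Bxb1 expression induced with 0.2% (w/v) L-rhamnose at OD600 near 0.5, cultures sampled hourly, flipped fraction per protease–substrate barcode pair counted by paired-end Illumina sequencing.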

Variant	area with substrate ENLYFQC	area with substrate ENLYFQD	area with substrate ENLYFQE	area with substrate ENLYFQF	area with substrate ENLYFQG	area with substrate ENLYFQH	area with substrate ENLYFQK	area with substrate ENLYFQL	area with substrate ENLYFQM	area with substrate ENLYFQN	area with substrate ENLYFQP	area with substrate ENLYFQR	area with substrate ENLYFQS	area with substrate ENLYFQT	area with substrate ENLYFQV	area with substrate ENLYFQW	area with substrate ENLYFQI	area with substrate ENLYFQQ	area with substrate ENLYFQY
I84E	0.057	0.0516	0.057	0.0533	0.0413	0.0623	0.0394	0.049	0.0639	0.0547	0.0566	0.0489	0.0573	0.0524	0.0546	0.0463			
I86Q	0.0425	0.0461		0.0561		0.027		0.042	0.12			0.0372	0.0442	0.0474	0.037	0.0273	0.0406	0.0358	0.0525
M88A	0.11	0.0691		0.0769	0.0984		0.0497	0.0668	0.0992	0.0826		0.0601	0.096	0.067		0.058	0.0535	0.0718	0.0402
K98A	0.126		0.0836		0.1	0.0872				0.0882	0.0596	0.0652	0.102	0.0718	0.0559		0.062		
K98C	0.1		0.0614		0.0848	0.0852	0.0653	0.0629		0.0796		0.0608	0.0977	0.0628			0.0596	0.081	0.0762
L99D	0.0692	0.0687				0.0508	0.0447	0.0603	0.0691	0.0595	0.0437	0.0477	0.0698	0.0523	0.0384		0.0572		0.0321
P104G	0.0577			0.053		0.047	0.0547	0.0481	0.0453	0.0465	0.0446	0.0475	0.0527	0.0531	0.0597		0.0539	0.0261	0.049
R109Q	0.112	0.0646		0.0768	0.103		0.0702	0.0866	0.101	0.0751	0.062	0.0632	0.0983	0.0717	0.0557	0.0728	0.0606		
T114Y	0.0896	0.0714					0.0603	0.0566		0.0848		0.0647	0.0967	0.0421		0.0728	0.0594		
S121H	0.122	0.0725			0.0887		0.0637	0.0674	0.0795	0.0736	0.0476	0.0597	0.112	0.0638			0.0619	0.0861	0.0917
S121W	0.106	0.0781		0.0774	0.0924	0.0934	0.0699	0.0611		0.0554	0.0598	0.0237	0.104	0.0747		0.072	0.065		
S123I	0.114	0.0837		0.069	0.102		0.0693	0.0651	0.0858	0.0815	0.0697	0.0576	0.101	0.0606		0.0564	0.0623		
S124V	0.116	0.0495	0.0679	0.0428	0.0965	0.0876	0.0555	0.063	0.0837	0.075	0.0405	0.0502	0.0947	0.0635		0.059	0.055		0.0729
V126A	0.131	0.0538		0.0825	0.108	0.0891	0.0285	0.0522	0.104	0.0776	0.0431	0.0517	0.108	0.0553		0.0668	0.0581		
T132A	0.108	0.0497	0.0457	0.0536	0.122	0.0815	0.0523	0.0537	0.0752	0.0681	0.0606	0.0665	0.108	0.0754	0.0499	0.0649		0.086	0.0964
P134G	0.0496	0.0679				0.117	0.06	0.0712	0.0732	0.0651	0.0526	0.0298	0.0836	0.0647		0.0545	0.0576	0.0626	
W141P	0.0469	0.0517	0.0589	0.0639	0.0557	0.0491	0.0565	0.0684	0.0751	0.0524			0.0548	0.055		0.0489	0.0459		0.0552
Q146T	0.0887	0.0574	0.0602	0.0597	0.0892		0.0571	0.0476	0.0921	0.0808		0.0332	0.103	0.0427	0.083	0.0679	0.0581		0.0845
T147Q	0.0572		0.059	0.0588	0.0601	0.061	0.0439	0.0534	0.0378	0.0603		0.0581	0.0687	0.0523	0.0695	0.0623		0.0597	0.0577
S154H	0.0944			0.0646	0.185		0.0551	0.0575	0.0778	0.0674	0.0465	0.0741	0.0905	0.0521	0.0679	0.0627			0.0644
S154W	0.0469	0.0589					0.0605	0.0624		0.0467		0.0636	0.07	0.0699		0.0587	0.0578	0.056	
L156H	0.0708	0.0619				0.066	0.0528	0.0597	0.045	0.0611	0.0525	0.0517	0.0591	0.0558		0.0551			
L156Q	0.0539	0.0551		0.0357		0.0369	0.0528	0.0295		0.0518		0.0486	0.0559	0.0526	0.0533	0.0456	0.0487		0.0609
V157S	0.0878				0.0678	0.0697	0.0525	0.0523		0.0616		0.0596	0.0733	0.0704	0.0594	0.063	0.0481	0.0638	0.0616
I164D	0.0547	0.0511		0.0683	0.0502	0.0909	0.0429	0.0532	0.0545	0.0472		0.0474	0.057		0.0715	0.0567	0.0552	0.0395	0.0409
